These results are taken from the supplement of paper PMC11417369.

The other results are listed elsewhere or left out.

The subject of this experiment is PfAP2-HC AP2 domain (GST-tagged). The experiment can be described thus: gcPBM binding intensity (ln(normalized median fluorescence intensity)); higher = stronger DNA binding. The method, boiled down:
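The highest Masliner-normalised natural-log median intensity across replicate spots of either probe orientation is reported as binding intensity. GST-tagged P. falciparum DNA-binding domains expressed in E. coli were applied for 1 h to an Agilent 4 × 180k array of primer-extended double-stranded 36-bp intergenic genomic probes plus negative controls, and bound protein was detected with Alexa488 anti-GST antibody and scanned at 488 nm.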
As for “TAAAATTTTGTTTGTTGTACTTATTTTCGTGTCAAC [XGTACX_site8277]”, the “gcPBM binding intensity (ln)” value was 9.58.

Turning to “AAAAGTATAATAAATTGTACTAACAAATATTTATGT [XGTACX_site7721]”, the “gcPBM binding intensity (ln)” value was 9.7.

On to “AAAAAAAAAAAAAAAAAAAAATATATATATATATAT [GTGCAC_negctrl_site426]”, for which the “gcPBM binding intensity (ln)” value turned out to be 9.47.

Consider “AATGTAAAACCTCCTACACACACCAATTAACTATTC [CACACA_site2112]”, for which the “gcPBM binding intensity (ln)” value is 10.2.

Take “TACTTATCGTTAAATTGTACTAAAAAATATTTTTCT [XGTACX_site4665]”: the “gcPBM binding intensity (ln)” value came to 9.64.

Turning to “AGGGAATATTTTTATGCATGTGCTTACACATTACAA [TGCATGCA_site830]”, the “gcPBM binding intensity (ln)” value was determined as 9.75.

As to “AAAAAAAACGGACACACACACATACAAAATATATAT [CACACA_site4910]”, the “gcPBM binding intensity (ln)” value came to 10.8.

Regarding “TTCTAATATTTACATAATATATAGAAATATAAAGGT [XGTACX_negctrl_site504]”, the “gcPBM binding intensity (ln)” value was 9.56.

On to “AAATATAAACTCAGCACACAAACATATATATGTCAT [CACACA_site4004]”, for which the “gcPBM binding intensity (ln)” value came to 9.99.

As to “ATGGTATAAAAAAATACACACTTATATATATTCTTA [CACACA_site4427]”, the “gcPBM binding intensity (ln)” value was found to be 9.69.

In the case of “TTTTTTTTTTTTTCTCGTACAAAATAATACCTTTTT [XGTACX_site3867]”, the “gcPBM binding intensity (ln)” value came to 9.44.

With “GTAGACATTATAATGGTGCAAAAAAATTAACAAAAA [GTGCAC_site9891]”, the “gcPBM binding intensity (ln)” value is 9.86.

With “AAGTATGCGTTATATACACACATACATTTATATATC [CACACA_site6207]”, the “gcPBM binding intensity (ln)” value came to 9.91.

As to “TCAGAGTGAAGTTATACACACATGGTTTTTTTTTTT [CACACA_site2116]”, the “gcPBM binding intensity (ln)” value is 9.69.

On to “AGAGAGAAAGCTATAACATGCAACAATTTTTAGAAA [TGCATGCA_site95]”, for which the “gcPBM binding intensity (ln)” value was 9.63.

With “AGGAGGATATTACACAGTACCCAGTAACTCTACGGA [XGTACX_site1998]”, the “gcPBM binding intensity (ln)” value is 9.74.

For “GTAATATATTTTTATGGTACACGAACTAGCCAAAAA [XGTACX_site6307]”, the “gcPBM binding intensity (ln)” value is 9.62.

Consider “TAATATATTTATAAGTGTACACATTATATAAATCCC [XGTACX_site8875]”, for which the “gcPBM binding intensity (ln)” value is 9.64.

Take “AGTAATAACTATATATGTACATATATATATTATTAG [XGTACX_site1113]”: the “gcPBM binding intensity (ln)” value is 9.71.

In the case of “CCGCATTTTACAGACACACACAATTTATATTACGGT [CACACA_site6974]”, the “gcPBM binding intensity (ln)” value is 9.95.

For the sequence TTTTTTTGATAAAAGGTGCTACAAGATGAATACATA, the “gcPBM binding intensity (ln)” value was found to be 9.4.

“TTTTTTTTTTTAAATACATGCATGTCCTATTTAAAT [TGCATGCA_site494]”: the “gcPBM binding intensity (ln)” value stood at 9.8.

For “ATAAATAAAAAAAAAAAAAAAAAAAAAAAAAAAATA [CACACA_negctrl_site1064]”, the “gcPBM binding intensity (ln)” value came to 9.31.

“GTTGTATAAAATAATACATGCATGTCCTACATATAT [TGCATGCA_site162]”: the “gcPBM binding intensity (ln)” value is 10.2.

With “TATATTATTTATTTTTGTACATATTATGAATGAATA [XGTACX_site3971]”, the “gcPBM binding intensity (ln)” value was found to be 9.51.

Consider “TTACCTTTAAATGGATGTACAGAAATTTAAATTGTT [XGTACX_site7044]”, for which the “gcPBM binding intensity (ln)” value turned out to be 9.53.

Turning to “CTTCCTTCTAAATGCACACGGAAAGTATAAATGTAT [CACACA_site2501]”, the “gcPBM binding intensity (ln)” value is 9.62.

For “TATATACAAAAAATATGTACATATATATATATATAT [XGTACX_site3497]”, the “gcPBM binding intensity (ln)” value amounted to 9.94.

With “AGAGATATAAGAAAAGCACACACACCCAAAAAAAAA [CACACA_site8917]”, the “gcPBM binding intensity (ln)” value came to 10.5.

Turning to “AAAAAATAAATAAATACACACACACTAATATATATA [CACACA_site8488]”, the “gcPBM binding intensity (ln)” value turned out to be 10.6.

As to ATTATTTATATTATGGTGCATAATTTTGGGTTTCTT, the “gcPBM binding intensity (ln)” value came out at 9.71.

For the sequence “TATTTGTTTTTATATAGTACATAAATATATATATAT [XGTACX_site7834]”, the “gcPBM binding intensity (ln)” value was 9.7.

On to “AAAATAAATATGAACACACACATTTATGCCTTTAAA [CACACA_site1271]”, for which the “gcPBM binding intensity (ln)” value was determined as 10.

Turning to “CCTCTTAATATGTGCACACTAAATTATAACATAATT [CACACA_site3259]”, the “gcPBM binding intensity (ln)” value is 9.95.

For “GGTTAACATAAATATATACACACCAATGATGGCATT [CACACA_site1568]”, the “gcPBM binding intensity (ln)” value came out at 9.76.

For “TGAAAAGTAAAATACACACACATAATCTAATTTATA [CACACA_site7024]”, the “gcPBM binding intensity (ln)” value is 10.1.

Regarding “TATATTATTTATTAGACACACATTATTAATATATTT [CACACA_site1078]”, the “gcPBM binding intensity (ln)” value was determined as 9.79.

On to “TGGATTTTGTATTAATGTACATATATATATATATAT [XGTACX_site4442]”, for which the “gcPBM binding intensity (ln)” value came out at 9.73.

With “CAGATAGACTTATATGCATGCATTCACATACCAACA [TGCATGCA_site163]”, the “gcPBM binding intensity (ln)” value turned out to be 9.65.

In the case of “AACAACATTTTGTAATGTACATATTTACTTATATTC [XGTACX_site7251]”, the “gcPBM binding intensity (ln)” value stood at 9.7.

Consider AAATAATTAGAAATAGTGCACATAATTAAGGGATAC, for which the “gcPBM binding intensity (ln)” value is 10.1.

“TAGAAATATATAAATTGTACATGTTTGTATAATATA [XGTACX_site2097]”: the “gcPBM binding intensity (ln)” value was 9.62.

Regarding “ATAATATCATCAAACGCACACATACATAAATATATT [CACACA_site5230]”, the “gcPBM binding intensity (ln)” value came to 10.

For the sequence “ACATATTATATGAATACACACAAAAACTTATCGGTA [CACACA_site3439]”, the “gcPBM binding intensity (ln)” value was found to be 9.98.
